The RNAGym collection of RNA variant scans (doi:10.7554/elife.90254)
The source gives no read counts; variants with many changes may rest on few reads.

B1: LINE1-mini (parent)
chain: GGCAGAGCUCAACACAGCGUGGCAAAGUGGCUGUGGCUAGACUGCC

Variants of: B1
Assay: self-cleavage, relative activity (ratio to wild type); higher = more cleavage; in vitro, sequencing; the parent is a self-cleaving ribozyme
For GGCAGAGGUCAACACAGCGUGGUAAAUUGGCUCUGGCUAGACUGCC [C8G C23U G27U G33C], the self-cleavage was 0.05.
GGCAGAGGUCAACACAGUGUGGCAAAGUGGCUGUGGUUAGACUGCC [C8G C18U C37U] gave a self-cleavage of 0.04.
With GGCAGAGGUCAACACUGCGUGGCCAAGUGGCUGUGGCUAGACUGCC [C8G A16U A24C] the self-cleavage was 0.04.
For GGCAGAGGUCAACACAGCGUGGAAAAGUGUCUGUGGCUAGACUGCC [C8G C23A G30U], the self-cleavage was 0.17.
For GGCAGAGGUCAACGCAGCGUGGCAAAGUGGUUGUGGCUGGUCUGCC [C8G A14G C31U A39G A41U], the self-cleavage was 0.03.
With GGCAGAGGUCAACAAAGCGUGACAAAGUGGCUAUGGCUAGACUGCC [C8G C15A G22A G33A] the self-cleavage was 0.02.
For GGCAGAGGUGAACACAGCGUGGCAAGGUGGCUGUGGCUAGACUGCC [C8G C10G A26G], the self-cleavage was 0.02.
GGCAGAGGUUAACACAGCGUGUAAAAGUGGCUGUGGCUAGACUGCC [C8G C10U G22U C23A] showed a self-cleavage of 0.01.
For GGCAGAGGUCAACACAGCGUGGCAUAGUGGCUGUGGCUAGUAUGCC [C8G A25U A41U C42A], the self-cleavage was 0.05.
Work on GGCAGAGGUCAACACAGCGUGGCUAAGUGGCUGUGGCUAGACUGCA [C8G A24U C46A] yielded a self-cleavage of 0.03.
GGCAGAGGUCAAUACAGCGAGGAAAAGUGGCUGUGGCAAGACUGCC [C8G C13U U20A C23A U38A] gave a self-cleavage of 0.03.
With GGCAGAGGUCAAUACAGCAUGGCAAAGAGGCUGUGGCUAGACUGCC [C8G C13U G19A U28A] the self-cleavage was 0.07.
With GGCAGAGGUCAACAGAGCGUGCCAAAGUGGCUGUGGCUUGACUGCC [C8G C15G G22C A39U] the self-cleavage was 0.01.
GGCAGAGGUCAACAAAGCGUGGCAAAGUGGGUGUGGCUCGACAGCC [C8G C15A C31G A39C U43A] gave a self-cleavage of 0.07.
Work on GGCAGAGGUGAACACAGCGUAGCAAAGUGGCUGUGGCUAGCCUGCC [C8G C10G G21A A41C] yielded a self-cleavage of 0.02.
Variant GGCAGAGGUUAACACAGCGUGGCAAAGUUUAUGUGGCUAGACUGCC [C8G C10U G29U G30U C31A] has a self-cleavage of 0.15.
For GGCAGAGGUCAAUACAGCGUGGCAAAGGUGCUGUGGGUAGACUGCC [C8G C13U U28G G29U C37G], the self-cleavage was 0.1.
Variant GGCAGAGGUCAACACGGCGUGGCAAAGUGGCUGUGGCUAAACUACC [C8G A16G G40A G44A] has a self-cleavage of 0.09.
Work on GGCAGAGGUCAACACAGCGUGGUAAAGUUGCUCUGGCUCGACUGCA [C8G C23U G29U G33C A39C C46A] yielded a self-cleavage of 0.01.
GGCAGAGGUCAACACAGGGUGGCAAAAUGGCUGUGGCUAGACUGCC [C8G C18G G27A] showed a self-cleavage of 0.04.
GGCAGAGGUCAAAAAAGCGUGGCAAAGUGGCUGUGGCUAGAAAGCC [C8G C13A C15A C42A U43A] showed a self-cleavage of 0.03.
For GGCAGAGGUCAACACAGCGUGGCAAAGUGGCUGUGGGUGGACUGCC [C8G C37G A39G], the self-cleavage was 0.07.
With GGCAGAGGUCAAUACAGCGUGGGAAAGUGGCUAUGGCUAGACUGCC [C8G C13U C23G G33A] the self-cleavage was 0.02.
In the case of GGCAGAGGUCAACACAGCAUGGCAAUGUGGCGGUGGCUAGACUGCC [C8G G19A A26U U32G], the self-cleavage is reported as 0.01.
With GGCAGAGGUCAACACAGCGUGGCAAGGUGGCUGUGGCUAGACUACC [C8G A26G G44A] the self-cleavage was 0.05.
GGCAGAGGUCAACACAGCGUGGCAAAGUGGAUGUGGCUGGACUGCC [C8G C31A A39G] showed a self-cleavage of 0.15.
GGCAGAGGUCAAGACAGCGUGGCAAAGUGACUGUGGCUAGACUGCC [C8G C13G G30A] gave a self-cleavage of 0.01.
Variant GGCAGAGGUCAACACAGCGUGGUAAAGUGGCUGUGGCUAGACCGGC [C8G C23U U43C C45G] has a self-cleavage of 0.02.
Work on GGCAGAGGUCAACACAGCGUGGCUAAGUGUCUGUGGCUAGACUGCC [C8G A24U G30U] yielded a self-cleavage of 0.05.
GGCAGAGGUCAACACAACGAGGCCAAGAGGCUGUGGCUAGACUGCC [C8G G17A U20A A24C U28A] showed a self-cleavage of 0.05.
Work on GGCAGAGGUGAACACAGCGUGGCUAAGUGGCUGUGGCUAUUGUGCC [C8G C10G A24U G40U A41U C42G] yielded a self-cleavage of 0.01.
For GGCAGAGGUAAACACAGCGUGACAAAGUGGCUGUGGCCAGACUGGC [C8G C10A G22A U38C C45G], the self-cleavage was 0.
GGCAGAGGUCAUCACAGCGUGGCAAAUUGGCUGUGGCUAGACUGCC [C8G A12U G27U] showed a self-cleavage of 0.06.
In the case of GGCAGAGGUCAACACAGCGUGGUAAAGUGACUGUGGCUAGACUGGC [C8G C23U G30A C45G], the self-cleavage is reported as 0.
For GGCAGAGGUCAACACAGCGUGGCAAGGUAGCUGUGGCUAGACUGCC [C8G A26G G29A], the self-cleavage was 0.04.
GGCAGAGGUCAACACAGAGUGGCAAAGGGGCUGUGGCUAGACUGCC [C8G C18A U28G] gave a self-cleavage of 0.02.
With GGCAGAGGUCAACACAGCGUGGCAAAGUGGCUGUGGGUAGACAGCC [C8G C37G U43A] the self-cleavage was 0.
In the case of GGCAGAGGUCAAAACAGAGUGGCAAAAUGGCUGUGGAUAGACAGCC [C8G C13A C18A G27A C37A U43A], the self-cleavage is reported as 0.05.
With GGCAGAGGUCAACACAGCGUGGAAAAGUGGCUGUUGCUAGACUACC [C8G C23A G35U G44A] the self-cleavage was 0.52.
GGCAGAGGUCAACACAGGGUGGCAAAGUGGCUGUGGCUACACUGCC [C8G C18G G40C] gave a self-cleavage of 0.02.
In the case of GGCAGAGGUCAACAAAGCGUGGCACAGUGGCUGUGGCUAGACUGCC [C8G C15A A25C], the self-cleavage is reported as 0.04.
Variant GGCAGAGGUCAACACGGAGUGGCAAAGUGGCUGUGGCUAGACUGCC [C8G A16G C18A] has a self-cleavage of 0.04.
Variant GGCAGAGGUCAACACAGCGUGGCUAAGUGGGUGUGGCUAGACUGCC [C8G A24U C31G] has a self-cleavage of 0.08.
For GGCAGAGGUCAAGACAGCGUGGUAAAGUGGCUGUGGCUAGAGUGCC [C8G C13G C23U C42G], the self-cleavage was 0.06.
For GGCAGAGGUAAACACAGCGUGGCAAAAUGGCUCUGGCUAGACUGCC [C8G C10A G27A G33C], the self-cleavage was 0.02.
Variant GGCAGAGGUCAACACAGCGUGGCAAAGUGGCUGUGGCUAGAAUCUC [C8G C42A G44C C45U] has a self-cleavage of 0.01.
In the case of GGCAGAGGUCAACACCGCGUGGCAAAGUGGCUGUGGAUAGACUGCC [C8G A16C C37A], the self-cleavage is reported as 0.01.
GGCAGAGGUUUACACAGCGUGGCUAAGUGGAUGUGGCUGGACUGCA [C8G C10U A11U A24U C31A A39G C46A] gave a self-cleavage of 0.01.
GGCAGAGGUCAAAACAGCGUGGCCAAGUGGCUGUGGCUAGACUGCC [C8G C13A A24C] gave a self-cleavage of 0.09.
GGCAGAGGUCAAAACAGCGUGGCAAGGUAGAUGUGGCUAGACUUCC [C8G C13A A26G G29A C31A G44U] showed a self-cleavage of 0.05.
With GGCAGAGGUCAACACGGCGUGGCAAAGUGGCUGUGGCUUGACUGCC [C8G A16G A39U] the self-cleavage was 0.04.
Variant GGCAGAGGUCAACACAGCGUGGCAGUGUGGCUCUGGCUAGACUGCC [C8G A25G A26U G33C] has a self-cleavage of 0.14.
In the case of GGCAGAGGUCAACACAUCGUGGCAAAGUGGCUGUGGCCAGACUGCC [C8G G17U U38C], the self-cleavage is reported as 0.07.
For GGCAGAGGUAAACACAGCGUGGCAAAGUGGCUGUGGCGAGACUGCC [C8G C10A U38G], the self-cleavage was 0.01.
With GGCAGAGGUCAACACAGCCUUGCAAAGUGGCUGUGGCUAGACUGCC [C8G G19C G21U] the self-cleavage was 0.08.
GGCAGAGGUAAAUACAGGGUGUCAAAGUGGCUGUGGCUAGACUGCC [C8G C10A C13U C18G G22U] gave a self-cleavage of 0.03.
